Measurements published in PubChem BioAssay AID1508649 (National Center for Advancing Translational Sciences (NCATS), 2021).
The campaign covered roughly 43,000 compounds. About 830 (1.9%) were called active. Inconclusive results, whose numbers are uncertain, are shown with a selection of clear calls. How the source made its calls: active means clear falling dose curves in both reporters; inconclusive means both reporters move, but less clearly or upward; inactive means either reporter flat; the % is the NLuc reporter signal. No potency is given beside an inconclusive call; the fits are too rough.

assay: Cell-based coincidence reporter assay to measure PMP22 gene transcription in S16 Pmp22-F2sN cells - Primary screen; details: S16 Pmp22-F2sN Schwann cells (luciferase reporters placed in the Pmp22 gene), FLuc/NLuc coincidence luminescence, 24 h; measured here: NLuc reporter readout, at 57.5 µM (top of the series); activity change, negative = inhibition: at the top concentration
Method in brief: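 Rat S16 Pmp22-F2sN cells, 500-1,000/well in phenol red-free DMEM + 10% FBS, compound-treated 24 h (37C, 5% CO2). Luminescence: FLuc read, Stop&Glo added, NLuc read.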
On the % scale 0 is the no-effect control and ±100 the full control effect; potency means the concentration at half of the fitted maximal effect; tags describe the fitted curve by direction and shape.

Structure (SMILES)	Potency	activity change, negative = inhibition
COc1ccc(S(=O)(=O)N(CCc2ccccc2)CC(=O)Nc2cc(C)cc(C)c2)cc1OC	inconclusive [phenotype inactive, single point]	
COC(=O)c1ccccc1NC(=O)c1nc(S(=O)(=O)Cc2cccc(C)c2)ncc1Cl	active: 5.32 µM	
COc1cc2c(cc1OC)C(COc1ccc(C(C)C)cc1)N(C(=O)c1ccc(S(=O)(=O)N3CCCC3)cc1)CC2 (stereo not given)	inconclusive [phenotype inactive, single point]	
COc1ccc(-c2nc(C)c(CCNC(=O)C(=O)Nc3c(C)cccc3C)s2)cc1OC	inconclusive [phenotype inactive, partial curve]	
CC(C)c1ccc(NC(=O)c2ccc3c(c2)CCCN3S(C)(=O)=O)cc1	inconclusive [phenotype inactive, single point]	
Cc1ccc(N2CC(NC(=O)c3ccc(S(=O)(=O)N4CCCC4)cc3)CC2=O)cc1 (stereo not given)	inconclusive [phenotype inactive, single point]	
CC(C)CC(=O)Nc1ccc(S(=O)(=O)Nc2cc3c(cc2N2CCOCC2)n(C)c(=O)c(=O)n3C)cc1	inconclusive [phenotype inactive, partial curve, poor fit]	
Cc1ccc(NC(=O)c2cn3c4c(ccc(Cl)c4c2=O)OC(C)C3)c(C)c1 (stereo not given)	inconclusive [phenotype inactive, single point]	
Cc1cccc(OCCSc2nc3ccc(NC(=O)COc4ccccc4C)cc3s2)c1	inconclusive [phenotype inactive, single point]	
CCC(=O)N1CCc2cc(CNC(=O)Cc3ccc(OC)c(OC)c3)ccc21	inconclusive [phenotype inactive, single point]	
Cc1ccccc1OCCCn1c(CCNC(=O)C2CCCCC2)nc2ccccc21	inconclusive [phenotype inactive, single point]	
CCOc1ccc(NC(=O)C2CCCN(c3nn4cc(-c5ccc(OC)cc5)nc4s3)C2)cc1 (stereo not given)	inconclusive [phenotype inactive, single point]	
Cn1c(=O)oc2cc(S(=O)(=O)N3CCCC(C(=O)N4CCN(c5ccc(Cl)cc5)CC4)C3)ccc21 (stereo not given)	active: 5.12 µM	
O=C(NCCc1ccccc1)c1ccc(Cn2c(=O)c3cccn3c3cccnc32)cc1		inactive: -34.9%
CC(C)Cn1cc(NC(=O)NCc2ccccc2)c2ccccc2c1=O	inconclusive [phenotype inactive, single point]	
